Laboratory results published in the supplement of paper PMC4604168 (melanoma cell lines).
The other results are listed elsewhere or left out. Most values come without repeats; read them as rough.

What follows are compounds tested on A101D (assay: cell count relative to DMSO control; melanoma cells; higher = more viable cells). Conditions: library dose: low library concentration; 72 h.
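Also: cell number obtained by counting DAPI-stained nuclei in high-throughput microscope images with image analysis software, screen run in 1,536-well plates.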

Row | SMILES | cell count
1 | Nc1nc(F)nc2c1ncn2[C@@H]1O[C@H](CO)[C@@H](O)[C@@H]1O [fludarabine] + c1cc(-c2cnn3cc(-c4ccc(OCCN5CCCCC5)cc4)cnc23)ccn1 [Dorsomorphin] (first compound 0.2 µM, partner dose 0.4 µM) | 94.5%
2 | CO[C@H]1C[C@@H]2CC[C@@H](C)[C@@](O)(O2)C(=O)C(=O)N2CCCC[C@H]2C(=O)O[C@H]([C@H](C)C[C@@H]2CC[C@@H](OCCO)[C@H](OC)C2)CC(=O)[C@H](C)/C=C(\C)[C@@H](O)[C@@H](OC)C(=O)[C@H](C)C[C@H](C)/C=C/C=C/C=C/1C [everolimus] + O=C(Nc1ccccc1)c1cc([N+](=O)[O-])ccc1Cl [GW9662] (first compound 0.02 µM, partner dose 2 µM) | 93.7%
3 | CC(=O)c1c(C)c2cnc(Nc3ccc(N4CCNCC4)cn3)nc2n(C2CCCC2)c1=O [palbociclib] + COC(=O)c1sccc1S(=O)(=O)Nc1ccc(Nc2ccccc2)cc1OC [GSK0660] (first compound 0.04 µM, partner dose 1 µM) | 78.5%
4 | CO[C@H]1C[C@@H]2CC[C@@H](C)[C@@](O)(O2)C(=O)C(=O)N2CCCC[C@H]2C(=O)O[C@H]([C@H](C)C[C@@H]2CC[C@@H](OCCO)[C@H](OC)C2)CC(=O)[C@H](C)/C=C(\C)[C@@H](O)[C@@H](OC)C(=O)[C@H](C)C[C@H](C)/C=C/C=C/C=C/1C [everolimus] + Cn1cc(/C=C2\C(=O)Nc3cccnc32)c2ccccc21 [GW441756] (first compound 0.02 µM, partner dose 0.4 µM) | 82.6%
5 | CO[C@H]1C[C@@H]2CC[C@@H](C)[C@@](O)(O2)C(=O)C(=O)N2CCCC[C@H]2C(=O)O[C@H]([C@H](C)C[C@@H]2CC[C@@H](OCCO)[C@H](OC)C2)CC(=O)[C@H](C)/C=C(\C)[C@@H](O)[C@@H](OC)C(=O)[C@H](C)C[C@H](C)/C=C/C=C/C=C/1C [everolimus] + CCN(CC)CCCCNc1ncc2cc(-c3cc(OC)cc(OC)c3)c(NC(=O)NC(C)(C)C)nc2n1 [PD173074] (first compound 0.02 µM, partner dose 0.1 µM) | 2.48%
6 | Nc1ccn([C@@H]2O[C@H](CO)[C@@H](O)C2(F)F)c(=O)n1 [gemcitabine] + O=C1NC(=O)/C(=C/c2ccc(-c3ccc(F)cc3O)o2)S1 [AS252424] (first compound 0.0004 µM, partner dose 1 µM) | 84.6%
7 | Nc1ccn([C@@H]2O[C@H](CO)[C@@H](O)C2(F)F)c(=O)n1 [gemcitabine] + Oc1nc(-c2ccc(C(F)(F)F)cc2)nc2c1CSCC2 [XAV939] (first compound 0.0004 µM, partner dose 2 µM) | 91.5%
8 | Nc1ccn([C@@H]2O[C@H](CO)[C@@H](O)C2(F)F)c(=O)n1 [gemcitabine] + O=S(=O)(c1ccccc1)N(CC(F)(F)F)c1ccc(C(O)(C(F)(F)F)C(F)(F)F)cc1 [T0901317] (first compound 0.0004 µM, partner dose 1.4 µM) | 81.5%
9 | Nc1nc(F)nc2c1ncn2[C@@H]1O[C@H](CO)[C@@H](O)[C@@H]1O [fludarabine] + CCc1ccc(CCOc2ccc(CC3SC(=O)NC3=O)cc2)nc1 [pioglitazone] (first compound 0.2 µM, partner dose 2 µM) | 92.2%
10 | CC(=O)c1c(C)c2cnc(Nc3ccc(N4CCNCC4)cn3)nc2n(C2CCCC2)c1=O [palbociclib] + Cc1cc([N+](=O)[O-])ccc1NS(=O)(=O)c1cc(Cl)ccc1Cl [FH535] (first compound 0.04 µM, partner dose 1 µM) | 57.4%
11 | CC(=O)O[C@@]12CO[C@@H]1C[C@H](O)[C@@]1(C)C(=O)[C@H](O)C3=C(C)[C@@H](OC(=O)[C@H](O)[C@@H](NC(=O)OC(C)(C)C)c4ccccc4)C[C@@](O)([C@@H](OC(=O)c4ccccc4)[C@H]21)C3(C)C [Docetaxel] + N#Cc1c(O)c2c(-c3ccc(-c4ccccc4O)cc3)csc2[nH]c1=O [A769662] (first compound 0.0001 µM, partner dose 2 µM) | 71.8%
12 | Nc1ncn([C@H]2C[C@H](O)[C@@H](CO)O2)c(=O)n1 [decitabine] + COC(=O)c1sccc1S(=O)(=O)Nc1ccc(Nc2ccccc2)cc1OC [GSK0660] (first compound 0.1 µM, partner dose 1 µM) | 80.9%
13 | CO[C@H]1C[C@@H]2CC[C@@H](C)[C@@](O)(O2)C(=O)C(=O)N2CCCC[C@H]2C(=O)O[C@H]([C@H](C)C[C@@H]2CC[C@@H](OCCO)[C@H](OC)C2)CC(=O)[C@H](C)/C=C(\C)[C@@H](O)[C@@H](OC)C(=O)[C@H](C)C[C@H](C)/C=C/C=C/C=C/1C [everolimus] + COc1ccc2c(c1)CCC1C2CCC2(C)C(NCCCCCCN3C(=O)C=CC3=O)CCC12 [U73122] (first compound 0.02 µM, partner dose 0.4 µM) | 71.1%
14 | CC(=O)O[C@@]12CO[C@@H]1C[C@H](O)[C@@]1(C)C(=O)[C@H](O)C3=C(C)[C@@H](OC(=O)[C@H](O)[C@@H](NC(=O)OC(C)(C)C)c4ccccc4)C[C@@](O)([C@@H](OC(=O)c4ccccc4)[C@H]21)C3(C)C [Docetaxel] + O=S(=O)(c1ccccc1)N(CC(F)(F)F)c1ccc(C(O)(C(F)(F)F)C(F)(F)F)cc1 [T0901317] (first compound 0.0001 µM, partner dose 1.4 µM) | 62.4%
15 | Nc1nc(F)nc2c1ncn2[C@@H]1O[C@H](CO)[C@@H](O)[C@@H]1O [fludarabine] + CCN(CC)CCCCNc1ncc2cc(-c3cc(OC)cc(OC)c3)c(NC(=O)NC(C)(C)C)nc2n1 [PD173074] (first compound 0.2 µM, partner dose 0.1 µM) | 95.3%
16 | CC(=O)c1c(C)c2cnc(Nc3ccc(N4CCNCC4)cn3)nc2n(C2CCCC2)c1=O [palbociclib] + N#Cc1c(O)c2c(-c3ccc(-c4ccccc4O)cc3)csc2[nH]c1=O [A769662] (first compound 0.04 µM, partner dose 2 µM) | 68%
17 | CC(=O)O[C@@]12CO[C@@H]1C[C@H](O)[C@@]1(C)C(=O)[C@H](O)C3=C(C)[C@@H](OC(=O)[C@H](O)[C@@H](NC(=O)OC(C)(C)C)c4ccccc4)C[C@@](O)([C@@H](OC(=O)c4ccccc4)[C@H]21)C3(C)C [Docetaxel] + Oc1cc(-c2nc(-c3ccccc3)[nH]c2-c2ccncc2)ccc1Cl [L779450] (first compound 0.0001 µM, partner dose 0.2 µM) | 83.8%
18 | CC(=O)c1c(C)c2cnc(Nc3ccc(N4CCNCC4)cn3)nc2n(C2CCCC2)c1=O [palbociclib] + O=C(O)C(=O)Nc1sc2c(c1C(=O)O)CCNC2 [TCS401] (first compound 0.04 µM, partner dose 1.66667 µM) | 62.6%
19 | Nc1ncn([C@H]2C[C@H](O)[C@@H](CO)O2)c(=O)n1 [decitabine] + COc1cc(N2CCC(N3CCN(C)CC3)CC2)ccc1Nc1ncc(Cl)c(Nc2ccccc2S(=O)(=O)C(C)C)n1 [NVP-TAE684] (first compound 0.1 µM, partner dose 0.08 µM) | 85.8%
20 | CC(=O)c1c(C)c2cnc(Nc3ccc(N4CCNCC4)cn3)nc2n(C2CCCC2)c1=O [palbociclib] + CCCCCCCCCCCC1=C(O)C(=O)C=C(O)C1=O [Embelin] (first compound 0.04 µM, partner dose 1.2 µM) | 91.7%
21 | CC(=O)O[C@@]12CO[C@@H]1C[C@H](O)[C@@]1(C)C(=O)[C@H](O)C3=C(C)[C@@H](OC(=O)[C@H](O)[C@@H](NC(=O)OC(C)(C)C)c4ccccc4)C[C@@](O)([C@@H](OC(=O)c4ccccc4)[C@H]21)C3(C)C [Docetaxel] + O=C1NC(=O)/C(=C/c2ccc(-c3ccc(F)cc3O)o2)S1 [AS252424] (first compound 0.0001 µM, partner dose 1 µM) | 56.4%
22 | CC(=O)O[C@@]12CO[C@@H]1C[C@H](O)[C@@]1(C)C(=O)[C@H](O)C3=C(C)[C@@H](OC(=O)[C@H](O)[C@@H](NC(=O)OC(C)(C)C)c4ccccc4)C[C@@](O)([C@@H](OC(=O)c4ccccc4)[C@H]21)C3(C)C [Docetaxel] + O=c1cc(-c2cccc3c2Sc2ccccc2S3)oc(N2CCOCC2)c1 [KU55933] (first compound 0.0001 µM, partner dose 1 µM) | 76.5%
23 | Nc1nc(F)nc2c1ncn2[C@@H]1O[C@H](CO)[C@@H](O)[C@@H]1O [fludarabine] + O=C(Nc1ccccc1)c1cc([N+](=O)[O-])ccc1Cl [GW9662] (first compound 0.2 µM, partner dose 2 µM) | 91.4%
24 | Nc1ncn([C@H]2C[C@H](O)[C@@H](CO)O2)c(=O)n1 [decitabine] + COc1ccc2c(c1)CCC1C2CCC2(C)C(NCCCCCCN3C(=O)C=CC3=O)CCC12 [U73122] (first compound 0.1 µM, partner dose 0.4 µM) | 89.5%
25 | Nc1ccn([C@@H]2O[C@H](CO)[C@@H](O)C2(F)F)c(=O)n1 [gemcitabine] + CCCCCCCCCCCC1=C(O)C(=O)C=C(O)C1=O [Embelin] (first compound 0.0004 µM, partner dose 1.2 µM) | 121%
26 | Nc1ccn([C@@H]2O[C@H](CO)[C@@H](O)C2(F)F)c(=O)n1 [gemcitabine] + COC(=O)c1sccc1S(=O)(=O)Nc1ccc(Nc2ccccc2)cc1OC [GSK0660] (first compound 0.0004 µM, partner dose 1 µM) | 105%
